Some of the results follow. Sequences were assembled here from the parent chain. Values near 0.05 are background.
B1: TEV protease; numbered along this chain (parent)
chain: MGESLFKGPRDYNPISSSICHLTNESDGHTTSLYGIGFGPFIITNKHLFRRNNGTLVVQSLHGVFKVKDTTTLQQHLVDGRDMIIIRMPKDFPPFPQKLKFREPQREERICLVTTNFQTKSMSSMVSDTSCTFPSGDGIFWKHWIQTKDGQCGSPLVSTRDGFIVGIHSASNFTNTNNYFTSVPKNFMELLTNQEAQQWVSGWRLNADSVLWGGHKVFMVKPEEPFQPVKEATQL

Variants of: B1
Assay: raw area under fraction-flipped curve 0-4 h after induction (AUC4h, not background-subtracted), DNA-recorder readout of cleavage of the substrate (dimensionless); higher = more cleavage of the substrate by the protease variant
Settings: temperature: 34 °C; time window: 0-4 h after rhamnose induction
Experimental: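 In vivo DNA recorder in E. coli TOP10(DE3) ΔrhaA at 34 °C. Each TEVp single-site mutant (parent TEVp 0) is paired with a single-site variant of the 7-mer TEVs (canonical ENLYFQ|S). The substrate sits between flexible linkers in a Bxb1-sfGFP-TEVs-SsrA fusion, so cleavage stabilises Bxb1 and speeds flipping of a recombination array, read by NGS. The value is the raw area under the fraction-flipped curve over 0-4 h after rhamnose induction (AUC4h), with ≥20 reads per time point. It is not background-subtracted; inactive controls average about 0.047.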
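Note: Bxb1 expression induced with 0.2% (w/v) L-rhamnose at OD600 near 0.5, cultures sampled hourly, flipped fraction per protease–substrate barcode pair counted by paired-end Illumina sequencing.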

| Variant | area with substrate ENLYAQS | area with substrate ENLYDQS | area with substrate ENLYEQS | area with substrate ENLYGQS | area with substrate ENLYIQS | area with substrate ENLYKQS | area with substrate ENLYLQS | area with substrate ENLYMQS | area with substrate ENLYNQS | area with substrate ENLYPQS | area with substrate ENLYRQS | area with substrate ENLYSQS | area with substrate ENLYTQS | area with substrate ENLYVQS | area with substrate ENLYWQS | area with substrate ENLYYQS | area with substrate ENLYCQS | area with substrate ENLYHQS | area with substrate ENLYQQS |
| --- | --- | --- | --- | --- | --- | --- | --- | --- | --- | --- | --- | --- | --- | --- | --- | --- | --- | --- | --- |
| F49Y | 0.0656 | 0.0612 | 0.0551 | 0.0358 | 0.0906 | 0.057 | 0.0636 | 0.07 | 0.0641 | 0.0683 | 0.0744 | 0.0616 | 0.0481 | 0.0741 | 0.0598 | 0.0472 |  |  |  |
| G166F | 0.0568 | 0.0511 | 0.0669 |  | 0.0405 |  |  | 0.0497 | 0.0574 | 0.0406 |  |  |  |  | 0.0471 | 0.0324 | 0.0594 | 0.0528 |  |
| E103T | 0.0334 |  | 0.0662 | 0.0626 |  | 0.0533 |  | 0.0807 | 0.0709 |  | 0.0493 | 0.0785 |  | 0.0589 |  |  | 0.0703 | 0.0659 | 0.0541 |
| I15M | 0.06 |  | 0.0537 | 0.0529 | 0.128 | 0.0597 | 0.0585 |  | 0.0574 | 0.0774 | 0.0579 |  | 0.0743 | 0.0671 | 0.043 | 0.0683 |  | 0.0591 | 0.0534 |
| A196F | 0.092 | 0.0572 | 0.0673 |  |  |  | 0.0944 | 0.0834 | 0.0558 | 0.0592 | 0.0587 |  |  | 0.121 | 0.0767 | 0.0828 | 0.0916 | 0.072 |  |
| L22H | 0.0464 | 0.0443 | 0.0454 | 0.0453 | 0.0454 | 0.0438 |  | 0.0456 | 0.0454 | 0.0465 | 0.0515 |  | 0.0632 | 0.0361 | 0.0363 | 0.0485 | 0.038 | 0.0595 | 0.0512 |
| L22D | 0.07 | 0.0529 | 0.0499 | 0.0585 | 0.0477 | 0.0547 | 0.0508 | 0.0357 | 0.035 | 0.0377 | 0.0562 | 0.0471 | 0.0489 | 0.0478 | 0.0483 | 0.071 |  | 0.0409 | 0.0541 |
| I85T | 0.0584 | 0.0454 | 0.0532 |  |  | 0.0439 | 0.0581 | 0.0616 | 0.0647 |  |  | 0.0663 |  | 0.0841 | 0.0607 |  | 0.01 | 0.0607 |  |
| E231N | 0.0937 | 0.0633 |  |  | 0.142 | 0.0251 | 0.0788 | 0.0679 |  |  | 0.0651 |  | 0.0678 | 0.104 |  | 0.0671 |  | 0.0783 |  |
| W212G | 0.0663 | 0.0639 |  |  | 0.0494 |  | 0.0465 | 0.0528 |  |  |  | 0.0538 |  | 0.0789 |  | 0.0586 |  | 0.0597 | 0.0465 |
| C20L | 0.0769 | 0.0579 | 0.0737 |  | 0.111 | 0.0636 | 0.0647 | 0.0773 | 0.0623 | 0.0586 | 0.0624 | 0.0649 | 0.0596 | 0.0791 | 0.0974 | 0.0672 |  | 0.0674 | 0.0608 |
| L99R | 0.0755 | 0.0802 | 0.0657 | 0.0901 |  |  | 0.0682 | 0.0719 | 0.0821 | 0.104 |  | 0.0563 | 0.0651 | 0.1 | 0.0691 | 0.0709 |  | 0.0544 | 0.0505 |
| I43D | 0.0451 |  | 0.0401 | 0.0332 | 0.0505 | 0.045 |  | 0.0497 | 0.044 | 0.0423 | 0.0392 | 0.0039 |  | 0.0463 | 0.0366 |  | 0.0427 | 0.05 | 0.0425 |
| T159I | 0.054 | 0.0551 | 0.0524 | 0.0844 | 0.125 | 0.0164 | 0.0821 |  | 0.0912 | 0.0695 | 0.0636 | 0.0761 |  | 0.123 | 0.0871 | 0.0782 |  | 0.0782 | 0.056 |
| Q198N | 0.078 |  | 0.0699 |  |  |  | 0.0915 |  |  | 0.0628 | 0.0566 | 0.074 |  | 0.11 | 0.076 |  |  | 0.0712 | 0.0636 |
| T44I | 0.0547 | 0.0636 | 0.0788 | 0.0538 | 0.0541 | 0.0555 | 0.055 | 0.0551 | 0.0517 | 0.0515 | 0.0601 | 0.0422 |  | 0.0577 | 0.0554 |  | 0.081 | 0.0082 | 0.0555 |
| V113S | 0.0559 | 0.0591 | 0.0612 |  |  | 0.0609 | 0.0677 | 0.0594 | 0.057 |  | 0.0572 |  | 0.0667 | 0.0753 |  |  |  | 0.0723 | 0.0467 |
| I110K | 0.0475 | 0.0589 | 0.0625 |  | 0.0563 | 0.0459 | 0.059 | 0.0544 |  | 0.0533 | 0.0481 | 0.0539 |  | 0.063 | 0.0558 |  |  | 0.0604 | 0.0511 |
| H29P | 0.081 | 0.07 | 0.0651 | 0.0639 | 0.0852 | 0.0668 | 0.0772 | 0.0625 | 0.0473 |  | 0.0655 | 0.0662 | 0.054 | 0.0825 |  | 0.0691 | 0.0648 | 0.0661 | 0.0556 |
| V157E | 0.0595 | 0.0469 | 0.0529 | 0.0465 |  | 0.0376 |  | 0.0509 | 0.0499 | 0.0527 | 0.0479 |  |  | 0.0572 | 0.0555 |  |  | 0.0619 |  |
| N13F | 0.0806 | 0.0604 | 0.0705 | 0.0641 |  | 0.068 | 0.0806 | 0.0856 | 0.0776 | 0.0513 | 0.0582 | 0.0687 | 0.0825 | 0.109 | 0.0809 | 0.0684 | 0.0774 | 0.0663 | 0.0644 |
| S60C | 0.0752 | 0.0671 | 0.0635 | 0.0609 | 0.142 | 0.048 |  | 0.0889 | 0.0625 |  | 0.0689 | 0.0779 | 0.0831 | 0.0759 | 0.073 | 0.0594 | 0.117 | 0.0705 | 0.0619 |
| V67W | 0.0774 | 0.059 | 0.0735 | 0.0723 |  | 0.0669 |  | 0.0893 | 0.0744 | 0.07 |  | 0.079 |  | 0.112 | 0.0702 |  |  | 0.0568 |  |
| T71V | 0.0438 | 0.0665 | 0.057 |  |  | 0.0302 |  | 0.0161 | 0.0451 | 0.0716 | 0.0633 | 0.0681 |  | 0.113 | 0.0702 | 0.0108 |  | 0.0641 |  |
| V183W | 0.0675 | 0.0564 | 0.0585 | 0.0573 | 0.0831 | 0.0717 | 0.0685 | 0.0745 | 0.0508 | 0.0812 | 0.0607 | 0.0557 |  | 0.113 | 0.0655 |  |  | 0.0603 | 0.0682 |

Reference: the supplement of paper PMC12217912
